# Publication PMC5892938
# This is one part of the list. At the low end of the ranking, values are background and their order means little.
# Target: GST-SBP-SLBP (stem-loop binding protein) (UniProt Q14493)
# Assay: targeted RNA Bind-n-Seq;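 also: DESeq read counts versus GST-SBP nonspecific binding control pulldown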
# Settings: RBNS binding buffer: 25 mM Tris pH 7.5, 150 mM KCl, 3 mM MgCl2, 0.1% Tween, 0.5 mg/mL BSA, 1 mM DTT; 27 nM protein, 750 pM RNA pool; temperature not stated; high values mean tight binding
row,Sequence,binding signal (log2 fold change)
1,GGUCACGUCUCAAUCAACUCAUCUUCCAGGGAAAUCCCUGGCUUUCUCAACAGCUCGCAGUCAAG,-0.0984
2,GGUCACGUCUCAAUCAACUCAACUCCCAGGGAAAACCCUGGCUAAUUCAACAGCUCGCAGUCAAG,0.0461
3,GGUCACGUCUCAAUCAACUCAUUCUCCAGGGAAAACCCUGGCUUUUUCAACAGCUCGCAGUCAAG,-0.2
4,GGUCACGUCUCAAUCAACUCUUAGGAGGGGGGGAAAACCCCUUUACCCUCAAUAUCAACAGCUCGCAGUCAAG,0.154
5,GGUCACGUCUCAAUCAACUCAUUCCCAGGAGUUUACUCCUGUUAUCUCAACAGCUCGCAGUCAAG,-0.00931
6,GGUCACGUCUCAAUCAACUCUAUCUCAGGAGUUUUCUCCUGCAAUCUCAACAGCUCGCAGUCAAG,0.234
7,GGUCACGUCUCAAUCAACUCAAUUCCCAGGGAAACCCCUGGCUUACUCAACAGCUCGCAGUCAAG,0.0784
8,GGUCACGUCUCAAUCAACUCCAUCGAGGGGGGGAAAACCCCUUUACCCUCAUCCUCAACAGCUCGCAGUCAAG,-0.326
9,GGUCACGUCUCAAUCAACUCAACUCCCAGGGAAAGCCCUGGCAAACUCAACAGCUCGCAGUCAAG,-0.00374
10,GGUCACGUCUCAAUCAACUCAUCUUCAGGAGUUUUCUCCUGCAAACUCAACAGCUCGCAGUCAAG,0.191
11,GGUCACGUCUCAAUCAACUCUUCGCCAGGAGUUUUCUCCUGUAUUCUCAACAGCUCGCAGUCAAG,-0.14
12,GGUCACGUCUCAAUCAACUCUAUCCCCAGGGAAAUCCCUGGCAAACUCAACAGCUCGCAGUCAAG,0.241
13,GGUCACGUCUCAAUCAACUCAUCCUCCAGGGAAAUCCCUGGUUUUUUCAACAGCUCGCAGUCAAG,-0.309
14,GGUCACGUCUCAAUCAACUCUAUCGAGGGGGGGAAAACCCCUUUGCCCUCAUUUUCAACAGCUCGCAGUCAAG,-0.827
15,GGUCACGUCUCAAUCAACUCUUCCCCCAGGGAAAACCCUGGUAAUGUCAACAGCUCGCAGUCAAG,0.0222
16,GGUCACGUCUCAAUCAACUCUACUUCCAGGGAAAGCCCUGGCUAAUUCAACAGCUCGCAGUCAAG,-0.0525
17,GGUCACGUCUCAAUCAACUCCUCUGAGGGGGGGAAAACCCCUUUACCCUCCACAUCAACAGCUCGCAGUCAAG,-0.0165
18,GGUCACGUCUCAAUCAACUCAGUCCCAGGAGUUUACUCCUGUAUUUUCAACAGCUCGCAGUCAAG,-0.0836
19,GGUCACGUCUCAAUCAACUCAUUUCCCAGGGAAACCCCUGGCUUUCUCAACAGCUCGCAGUCAAG,0.075
20,GGUCACGUCUCAAUCAACUCUCAAGAGGGGGGGAAAACCCCUUUGCCCUCAAUCUCAACAGCUCGCAGUCAAG,0.167
21,GGUCACGUCUCAAUCAACUCACAAGAGGGGGGGAAAACCCCUUUACCCUCCAUAUCAACAGCUCGCAGUCAAG,0.0993
22,GGUCACGUCUCAAUCAACUCUUUCCCCAGGGAAACCCCUGGCUAACUCAACAGCUCGCAGUCAAG,-0.152
23,GGUCACGUCUCAAUCAACUCUAGUCCAGGAGUUUACUCCUGCAAUUUCAACAGCUCGCAGUCAAG,0.00711
24,GGUCACGUCUCAAUCAACUCAUCUCCCAGGGAAAUCCCUGGUUUACUCAACAGCUCGCAGUCAAG,0.207
25,GGUCACGUCUCAAUCAACUCUAUUCCCAGGGAAACCCCUGGCUAUUUCAACAGCUCGCAGUCAAG,0.147

row,Sequence,binding signal (log2 fold change)
1,GGUCACGUCUCAAUCAACUCAAUCUCAGGAGUUUCCUCCUGUAAAUUCAACAGCUCGCAGUCAAG,0.0953
2,GGUCACGUCUCAAUCAACUCAACUCCAGGAGUUUUCUCCUGUUUACUCAACAGCUCGCAGUCAAG,-0.0942
3,GGUCACGUCUCAAUCAACUCUUUCGAGGGGGGGAAAACCCCUUUACCCUCAUAAUCAACAGCUCGCAGUCAAG,0.336
4,GGUCACGUCUCAAUCAACUCAUCUCCCAGGGAAAGCCCUGGCUAUUUCAACAGCUCGCAGUCAAG,0.0564
5,GGUCACGUCUCAAUCAACUCUUCUUCAGGAGUUUCCUCCUGUAAACUCAACAGCUCGCAGUCAAG,0.0543
6,GGUCACGUCUCAAUCAACUCAUUCCCCAGGGAAAUCCCUGGUUUACUCAACAGCUCGCAGUCAAG,0.124
7,GGUCACGUCUCAAUCAACUCUAUCUCCAGGGAAACCCCUGGCUAACUCAACAGCUCGCAGUCAAG,0.366
8,GGUCACGUCUCAAUCAACUCCAAAGAGGGGGGGAAAACCCCUUUGCCCUCAAAAUCAACAGCUCGCAGUCAAG,-0.253
9,GGUCACGUCUCAAUCAACUCAGUCCCCAGGGAAACCCCUGGUAUAUUCAACAGCUCGCAGUCAAG,0.0296
10,GGUCACGUCUCAAUCAACUCUAUCCCCAGGGAAAGCCCUGGCAAACUCAACAGCUCGCAGUCAAG,0.252
11,GGUCACGUCUCAAUCAACUCUCUAGAGGGGGGGAAAACCCCUUUACCCUCGUCUUCAACAGCUCGCAGUCAAG,-0.261
12,GGUCACGUCUCAAUCAACUCCAUAGAGGGGGGGAAAACCCCUUUGCCCUCAUCUUCAACAGCUCGCAGUCAAG,-0.515
13,GGUCACGUCUCAAUCAACUCUUCUCCCAGGGAAAGCCCUGGUUAACUCAACAGCUCGCAGUCAAG,0.335
14,GGUCACGUCUCAAUCAACUCAUUCGAGGGGGGGAAAACCCCUUUACCCUCAAUAUCAACAGCUCGCAGUCAAG,-0.393
15,GGUCACGUCUCAAUCAACUCCCCAGAGGGGGGGAAAACCCCUUUACCCUCCGUUUCAACAGCUCGCAGUCAAG,-0.195
16,GGUCACGUCUCAAUCAACUCUACUUCAGGAGUUUUCUCCUGCAAUCUCAACAGCUCGCAGUCAAG,0.0382
17,GGUCACGUCUCAAUCAACUCACAAGAGGGGGGGAAAACCCCUUUACCCUCCAAUUCAACAGCUCGCAGUCAAG,0.0513
18,GGUCACGUCUCAAUCAACUCUUUUGCAGGAGUUUUCUCCUGGUAUCUCAACAGCUCGCAGUCAAG,0.025
19,GGUCACGUCUCAAUCAACUCUUCCCCAGGAGUUUUCUCCUGUAAUGUCAACAGCUCGCAGUCAAG,0.112
20,GGUCACGUCUCAAUCAACUCUAUCCCCAGGGAAAGCCCUGGCAUUUUCAACAGCUCGCAGUCAAG,0.292
21,GGUCACGUCUCAAUCAACUCUUCCUCAGGAGUUUCCUCCUGUAUUUUCAACAGCUCGCAGUCAAG,-0.0517
22,GGUCACGUCUCAAUCAACUCAAUUCCAGGAGUUUUCUCCUGUUAAUUCAACAGCUCGCAGUCAAG,0.0988
23,GGUCACGUCUCAAUCAACUCAGUCUCAGGAGUUUACUCCUGCAUUCUCAACAGCUCGCAGUCAAG,-0.00986
24,GGUCACGUCUCAAUCAACUCUCUGGAGGGGGGGAAAACCCCUUUACCCUCAUCAUCAACAGCUCGCAGUCAAG,-0.387
25,GGUCACGUCUCAAUCAACUCAUCUCCCAGGGAAAACCCUGGCUUUCUCAACAGCUCGCAGUCAAG,-0.0926

row,Sequence,binding signal (log2 fold change)
1,GGUCACGUCUCAAUCAACUCAUCUUCCAGGGAAAUCCCUGGCAAUUUCAACAGCUCGCAGUCAAG,0.0192
2,GGUCACGUCUCAAUCAACUCAUCCUCAGGAGUUUCCUCCUGCAAACUCAACAGCUCGCAGUCAAG,0.314
3,GGUCACGUCUCAAUCAACUCUUCUCCAGGAGUUUACUCCUGUAUUCUCAACAGCUCGCAGUCAAG,-0.0838
4,GGUCACGUCUCAAUCAACUCAGUUCCAGGAGUUUUCUCCUGCAAAUUCAACAGCUCGCAGUCAAG,-0.148
5,GGUCACGUCUCAAUCAACUCAAUCCCAGGAGUUUUCUCCUGCUUAGUCAACAGCUCGCAGUCAAG,0.111
6,GGUCACGUCUCAAUCAACUCAUCGGAGGGGGGGAAAACCCCUUUACCCUCAAAAUCAACAGCUCGCAGUCAAG,-0.0467
7,GGUCACGUCUCAAUCAACUCAUCUUCCAGGGAAAACCCUGGUUUUCUCAACAGCUCGCAGUCAAG,0.255
8,GGUCACGUCUCAAUCAACUCAUCGCCCAGGGAAAACCCUGGUUAAUUCAACAGCUCGCAGUCAAG,-0.239
9,GGUCACGUCUCAAUCAACUCAAUCUCCAGGGAAAACCCUGGUAUUCUCAACAGCUCGCAGUCAAG,0.127
10,GGUCACGUCUCAAUCAACUCAUCGUCCAGGGAAAACCCUGGCUAAUUCAACAGCUCGCAGUCAAG,0.202
11,GGUCACGUCUCAAUCAACUCAUUCGCAGGAGUUUACUCCUGGUUUUUCAACAGCUCGCAGUCAAG,0.0271
12,GGUCACGUCUCAAUCAACUCACACGAGGGGGGGAAAACCCCUUUACCCUCACACUCAACAGCUCGCAGUCAAG,-0.287
13,GGUCACGUCUCAAUCAACUCUUCUCCCAGGGAAAUCCCUGGCUAUUUCAACAGCUCGCAGUCAAG,0.236
14,GGUCACGUCUCAAUCAACUCUUCUUCCAGGGAAAGCCCUGGUAUUCUCAACAGCUCGCAGUCAAG,-0.265
15,GGUCACGUCUCAAUCAACUCUUACGAGGGGGGGAAAACCCCUUUACCCUCAAUUUCAACAGCUCGCAGUCAAG,-0.125
16,GGUCACGUCUCAAUCAACUCAUCGCCCAGGGAAAGCCCUGGUAAUCUCAACAGCUCGCAGUCAAG,-0.213
17,GGUCACGUCUCAAUCAACUCAUUCUCAGGAGUUUACUCCUGCAUAUUCAACAGCUCGCAGUCAAG,-0.0629
18,GGUCACGUCUCAAUCAACUCUUUCCCAGGAGUUUUCUCCUGCAAUGUCAACAGCUCGCAGUCAAG,0.0482
19,GGUCACGUCUCAAUCAACUCAAAAGAGGGGGGGAAAACCCCUUUGCCCUCAUCGUCAACAGCUCGCAGUCAAG,-0.217
20,GGUCACGUCUCAAUCAACUCAAUCUCCAGGGAAAGCCCUGGUUUACUCAACAGCUCGCAGUCAAG,0.242
21,GGUCACGUCUCAAUCAACUCAUCCCCCAGGGAAAGCCCUGGUAUACUCAACAGCUCGCAGUCAAG,0.0323
22,GGUCACGUCUCAAUCAACUCCUCAGAGGGGGGGAAAACCCCUUUGCCCUCAUUAUCAACAGCUCGCAGUCAAG,-0.604
23,GGUCACGUCUCAAUCAACUCAUACGAGGGGGGGAAAACCCCUUUACCCUCACACUCAACAGCUCGCAGUCAAG,-0.06
24,GGUCACGUCUCAAUCAACUCAUCCUCAGGAGUUUCCUCCUGUAUAUUCAACAGCUCGCAGUCAAG,0.207
